Source: PubChem BioAssay (Tox21)
The inconclusive results got no clear call from the source; some entries with a clear call stand among them for comparison. Potencies of inconclusive entries are left out as doubtful fits. The source made the active and inactive calls. The call rests on the fitted dose curve; in most records, active means well fitted curve in the direction sought with a large enough effect in the repeat runs; inconclusive means weak or mixed curves; inactive means no such curve, though single readings can be large; an effect the other way counts as inactive or inconclusive.

Test: qHTS assay to identify small molecule antagonists of the estrogen related receptor (ERR) signaling pathway from Tox21 library (AID 1224848)
Details: ERR reporter cell line, luciferase antagonist mode, 18 h; series mostly up to 92.4 µM; activity, negative = inhibition: at the top concentration
How it was run: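 Screening used an ERR reporter line supplied by NTP, exposed for 18 h at 37 C to library compounds delivered in DMSO. Signal was luciferase luminescence developed with ONE-Glo at room temperature for 30 min.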
Further: nearly all actives have a fitted effect of over 50% in size.
On the % scale 0 is the no-effect control and ±100 the full control effect; potency means the concentration at half of the fitted maximal effect; tags describe the fitted curve by direction and shape.

Q: For `CC(C#N)(CCC(=O)O)N=NC(C)(C#N)CCC(=O)O` (stereo unspecified), which “activity, negative = inhibition” value is on record?
A: inactive: 0.451%

Q: Which Potency does the source give for `CCC(=O)O[C@]1(C(=O)CCl)[C@@H](C)C[C@H]2[C@@H]3CCC4=CC(=O)C=C[C@]4(C)[C@@]3(F)[C@@H](O)C[C@@]21C` here?
A: inconclusive [inhibitor, partial curve]

Q: With `CCCCC(CC)COC(=O)CS` (stereo unspecified) as the compound, how does the Potency read?
A: inconclusive [inhibitor, partial curve, poor fit]

Test: qHTS RealTime-Glo MT Cell Viability Assay in HepG2 cells - 24 hour (AID 1224867)
Details: RealTime-Glo luminescence; series mostly up to 76.8 µM; activity change, negative = cytotoxicity: at the top concentration
How it was run: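 Compound treatment began 5 h after plating HepG2 cells (600/well) with NanoLuc luciferase and prosubstrate. Plates stayed at 37 C for 40 h; luminescence was captured at six time points, 0 h through 40 h.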

Q: With `CC[C@H](C)[C@@H](C(=O)O)n1sc2ccccc2c1=O` as the compound, how does the Potency read?
A: inconclusive [falling, partial curve, poor fit]

Q: Which “activity change, negative = cytotoxicity” value does the source give for `C[N+]12CCC(CC1)C(OC(=O)C(O)(c1ccccc1)c1ccccc1)C2` (stereo unspecified) here?
A: inactive: 0.0533% [at 35.3 µM]

Q: With `CC(C)(N)CO` as the compound, how does the Potency read?
A: inactive

Q: For `CCC(=O)O[C@]1(C(=O)CCl)[C@@H](C)C[C@H]2[C@@H]3CCC4=CC(=O)C=C[C@]4(C)[C@@]3(F)[C@@H](O)C[C@@]21C`, which Potency is on record?
A: inconclusive [falling, partial curve, poor fit]

Test: qHTS RealTime-Glo MT Cell Viability Assay in HEK293 cells - 32 hour (AID 1224868); on activity change, negative = cytotoxic: top concentration of the series differs between compounds
Details: RealTime-Glo luminescence; series mostly up to 76.8 µM; activity change, negative = cytotoxic: at the top concentration
How it was run: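 Quantitative high-throughput screen of the Tox21 10K library in HEK293: cells and RealTime-Glo reagents plated together, compound added at 5 h, luminescence monitored through 40 h at 37 C.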

Q: With `C=CCOCC(O)CO` (stereo unspecified) as the compound, how does the “activity change, negative = cytotoxic” value read?
A: inactive: 12.6%

Q: For `CCCCCCCCCCCCCCCC(=O)OC/C=C(C)/C=C/C=C(C)/C=C/C1=C(C)CCCC1(C)C`, which “activity change, negative = cytotoxic” value is on record?
A: inactive: -3.1%

Q: Which Potency does the source give for `COC(=O)Nc1ccc(Cl)c(Cl)c1` here?
A: inconclusive [cytotoxic, partial curve, poor fit]

Q: For `CCC(=O)O[C@]1(C(=O)CCl)[C@@H](C)C[C@H]2[C@@H]3CCC4=CC(=O)C=C[C@]4(C)[C@@]3(F)[C@@H](O)C[C@@]21C`, which Potency is on record?
A: inconclusive [cytotoxic, partial curve]
